pKd: −log10 of the molar value.
Legend:
hPD-L2 = target: T1, hPD-L2 (Homo sapiens, UniProt Q9BQ51); experiment: Biacore specificity analysis of primary Z variants, hPD-L2; type: binding; settings: Z variant concentrations up to 50 nM
T1 construct: Fc (IgG Fc fusion partner); purchased R&D Systems 1224-PL-100
T1 sequence (Q9BQ51 20-219 limits assumed): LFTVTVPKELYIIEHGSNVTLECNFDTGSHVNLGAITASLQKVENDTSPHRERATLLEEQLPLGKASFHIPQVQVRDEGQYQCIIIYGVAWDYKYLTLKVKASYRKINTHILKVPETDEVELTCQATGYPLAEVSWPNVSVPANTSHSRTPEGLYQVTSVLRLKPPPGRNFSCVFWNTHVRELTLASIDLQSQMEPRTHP
Experimental: (§1) Biacore kinetic and specificity analysis: Kinetic constants (ka and kd) and affinities (KD) for hPD-L1 were determined for 14 Hiss-tagged Z variants using a Biacore 2000 instrument (GE Healthcare). Some of the Z variants were also tested for binding against the sequence-related proteins hPD-L2, hB7-H3, hB7-H4 and mPD-L1 (mouse PD-L1 Fc Chimera, R&D Systems, cat. no. 1019-B7).
hPD-L1, hPD-L2, hB7-H3, hB7-H4 and mPD-L1 were immobilized in separate flow cells on the carboxylated dextran layer of different CM5 chip surfaces (GE Healthcare, cat. no. BR100012). The immobilization was performed using amine coupling chemistry according to the manufacturer's protocol and using HBS-EP as running buffer (0.01 M HEPES pH 7.4, 0.15 M NaCl, 3 mM EDTA, 0.005% v/v Surfactant P20, GE Healthcare, cat. no. BR100188). The ligand immobilization levels on the surfaces were 468-894 RU for hPD-L1, 537-742 RU for hPD-L2, 383 RU for hB7-H3, 538-659 RU for hB7-H4 and 482 RU for mPD-L1. One flow cell surface on each chip was activated and deactivated for use as blank during analyte injections. In the kinetic experiment, HBS-EP was used as running buffer and the flow rate was 50 μl/min. […] Kinetic constants were calculated from the sensorgrams using the Langmuir 1:1 model of BiaEvaluation software 4.1 (GE Healthcare).

hPD-L1 binding to hPD-1 = target: T2, hPD-L1 binding to hPD-1 (Homo sapiens, UniProt Q9NZQ7); experiment: AlphaLISA blocking assay (Example 3); settings: His6-tagged Z variants 250 nM to 12 pM; 10 nM biotinylated hPD-L1; read-out: IC50 (M), inhibiting binding of PD-L1 to PD-1
T2 construct: 1086-PD-050 (hPD-1)
T2 sequence (Q9NZQ7 19-239 limits assumed): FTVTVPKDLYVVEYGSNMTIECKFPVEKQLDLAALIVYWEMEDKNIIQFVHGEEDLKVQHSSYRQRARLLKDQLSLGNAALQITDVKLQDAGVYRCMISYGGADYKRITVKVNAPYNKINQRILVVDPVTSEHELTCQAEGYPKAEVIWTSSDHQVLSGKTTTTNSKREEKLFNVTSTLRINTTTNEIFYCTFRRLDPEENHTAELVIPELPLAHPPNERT
Experimental: AlphaLISA blocking assay: The potential of Z variants to inhibit binding of PD-L1 to PD-1 was analyzed by AlphaLISA and recordings in an EnSpire multiplate reader 2300 (Perkin Elmer). hPD-1 (human PD-1 Fc-chimera; R&D Systems, cat. no. 1086-PD-050) was immobilized on AlphaLISA Acceptor beads (Perkin Elmer, cat. no. 6772002) according to the manufacturer's recommendations. Stepwise serial dilutions 1:3 of Hiss-tagged Z variants to final concentrations of 250 nM to 12 pM were made in a 384 plate (Perkin Elmer, cat. no. 6005350) and incubated for 1 h with 10 nM biotinylated hPD-L1 in AlphaLISA buffer (Perkin Elmer, cat. no. AL000F). hPD-1-coated Acceptor beads were added to a final concentration of 10 μg/ml and incubated for 1 h. Finally, streptavidin coated Donor beads (Perkin Elmer, cat. no. 6772002) were added to a final concentration of 40 μg/ml and incubated for 30 min. All incubations were performed at RT in the dark. The plate was analyzed in the EnSpire instrument and the IC50 values were calculated using GraphPad Prism 5.

[1] = system: PD-L1 expressing THP-1 cells (IFNγ stimulated); experiment: Cell binding analysis by FACS, THP-1 cells; type: cell-based; settings: IFNγ stimulated THP-1 cells; 10 μg/ml His6-tagged Z variant (antibody 1 μg/ml); normalized against Z13091
Experimental: Cell binding analysis by FACS: The potential of Z variants to bind PD-L1 expressing cells was investigated using Fluorescence Activated Cell Sorting (FACS). THP-1 cells, cultivated in RPMI (Lonza, cat. no. BE12-702F) containing 10% FBS were stimulated with 10 ng/ml IFNg (R&D Systems, cat. no. 285-IF-100) overnight which results in up-regulation of PD-L1. 150,000 stimulated and unstimulated cells were pipetted per well of a v-bottomed 96 well plate (Nunc, cat. no. 277143) and the cells in the plate were subsequently pelleted at 400 g for 3 min at RT. The supernatants were removed and the cells were resuspended in 100 μl PBS plus 2.5% FBS (staining buffer) containing 10 μg/ml of the different His-tagged Z variants. […] Cells incubated with buffer alone were used as negative controls. The cells were incubated for 1 h at 8° C. in the dark, washed twice with 100 μl staining buffer and resuspended in 100 μl of staining buffer containing a goat anti-Z antibody (produced in house) at a concentration of 5 μg/ml. Cells stained with the positive control were treated with buffer only. The cells were incubated for 1 h at 8° C. in the dark, washed twice with 100 μl staining buffer and resuspended in 100 μl of staining buffer containing an Alexa Fluor 647 chicken anti-goat IgG antibody (Life technologies, cat. no. A21469) or an Alexa Fluor 647 goat anti-mouse IgG antibody (Life technologies cat. no. A21236). The cells were once again incubated for 1 h at 8° C. in the dark, washed twice with 100 μl staining buffer and resuspended in 200 μl of staining buffer. Data from 10,000 cells were obtained using a FACS Calibur ([…]) and the data was analyzed using Flowing software 2.5.0 (Turku University). Mean fluorescence intensity (MFI) was used as a read out of binding capacity.

hB7-H4 = target: T3, hB7-H4 (Homo sapiens, UniProt Q7Z7D3); experiment: Biacore specificity analysis of primary Z variants, hB7-H4; type: binding; settings: for SPR binding against hB7-H4: Z variant concentrations up to 50 nM
T3 construct: purchased R&D Systems 6576-B7-50
T3 sequence (Q7Z7D3 25-282): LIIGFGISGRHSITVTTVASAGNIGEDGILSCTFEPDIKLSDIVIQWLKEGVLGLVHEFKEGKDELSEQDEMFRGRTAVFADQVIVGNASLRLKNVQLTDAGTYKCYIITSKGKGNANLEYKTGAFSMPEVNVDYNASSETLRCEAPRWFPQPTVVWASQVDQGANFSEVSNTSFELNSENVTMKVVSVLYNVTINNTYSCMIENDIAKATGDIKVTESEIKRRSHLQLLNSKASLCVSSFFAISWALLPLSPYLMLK
Experimental: as §1
hPD-L1, hPD-L2, hB7-H3, hB7-H4 and mPD-L1 were immobilized in separate flow cells on the carboxylated dextran layer of different CM5 chip surfaces (GE Healthcare, cat. no. BR100012). The immobilization was performed using amine coupling chemistry according to the manufacturer's protocol and using HBS-EP as running buffer (0.01 M HEPES pH 7.4, 0.15 M NaCl, 3 mM EDTA, 0.005% v/v Surfactant P20, GE Healthcare, cat. no. BR100188). The ligand immobilization levels on the surfaces were 468-894 RU for hPD-L1, 537-742 RU for hPD-L2, 383 RU for hB7-H3, 538-659 RU for hB7-H4 and 482 RU for mPD-L1. One flow cell surface on each chip was activated and deactivated for use as blank during analyte injections. In the kinetic experiment, HBS-EP was used as running buffer and the flow rate was 50 μl/min. The analytes, i.e. the Z variants, were each diluted in HBS-EP buffer within a concentration range of 1000 to 0.01 nM and injected for 5 min, followed by dissociation in running buffer for 15-25 min. After dissociation, the surfaces were regenerated with one or two injections of 0.1% SDS. Kinetic constants were calculated from the sensorgrams using the Langmuir 1:1 model of BiaEvaluation software 4.1 (GE Healthcare).

| SPR binding against hPD-L2 (hPD-L2) | IC50 (hPD-L1 binding to hPD-1) [M] | SPR response against B7-H4 (hB7-H4; 1000 nM Z variant injected) | pKd (hB7-H4; Biacore, immobilized hB7-H4, response seen at 1000 nM Z variant) | SPR binding against hB7-H4 (hB7-H4) | Substance | MFI (normalized) [1] |
| --- | --- | --- | --- | --- | --- | --- |
| absence of SPR response | 1.4e-09 | some response | < 5.30 | absence of SPR response | Z13156: primary PD-L1 binding Z variant (VDAKYAKERNQAAVEILQLPNLTAAQYWAFIWKLDDDPSQSSELLSEAKKLNDSQAPK; Engineered PD-L1 binding polypeptide) | 1.09 |
| absence of SPR response | 6.9e-09 |  |  | absence of SPR response | Z13091: primary PD-L1 binding Z variant (VDAKYAKERNNAAFEILRLPNLTNGQHWAFIWKLADDPSQSSELLSEAKKLNDSQAPK; Engineered PD-L1 binding polypeptide) | 1.00 |

Reference: patent publication US11155596B2, “Polypeptide” (AFFIBODY AB, priority 2016, dated 2021)
